Assay results: article PMC4336329 (PLoS ONE, 2015)
The campaign covered roughly 310,000 compounds. About 2,200 (0.71%) showed an effect of 50% or more. Effects have a minus sign here. The list shows a part of the results.

target: human ether-à-go-go-related gene (hERG) potassium channel (human, UniProt Q12809); assay: primary screen, population patch clamp on CHO cells stably expressing hERG
Sequence (Q12809 whole entry, looked up): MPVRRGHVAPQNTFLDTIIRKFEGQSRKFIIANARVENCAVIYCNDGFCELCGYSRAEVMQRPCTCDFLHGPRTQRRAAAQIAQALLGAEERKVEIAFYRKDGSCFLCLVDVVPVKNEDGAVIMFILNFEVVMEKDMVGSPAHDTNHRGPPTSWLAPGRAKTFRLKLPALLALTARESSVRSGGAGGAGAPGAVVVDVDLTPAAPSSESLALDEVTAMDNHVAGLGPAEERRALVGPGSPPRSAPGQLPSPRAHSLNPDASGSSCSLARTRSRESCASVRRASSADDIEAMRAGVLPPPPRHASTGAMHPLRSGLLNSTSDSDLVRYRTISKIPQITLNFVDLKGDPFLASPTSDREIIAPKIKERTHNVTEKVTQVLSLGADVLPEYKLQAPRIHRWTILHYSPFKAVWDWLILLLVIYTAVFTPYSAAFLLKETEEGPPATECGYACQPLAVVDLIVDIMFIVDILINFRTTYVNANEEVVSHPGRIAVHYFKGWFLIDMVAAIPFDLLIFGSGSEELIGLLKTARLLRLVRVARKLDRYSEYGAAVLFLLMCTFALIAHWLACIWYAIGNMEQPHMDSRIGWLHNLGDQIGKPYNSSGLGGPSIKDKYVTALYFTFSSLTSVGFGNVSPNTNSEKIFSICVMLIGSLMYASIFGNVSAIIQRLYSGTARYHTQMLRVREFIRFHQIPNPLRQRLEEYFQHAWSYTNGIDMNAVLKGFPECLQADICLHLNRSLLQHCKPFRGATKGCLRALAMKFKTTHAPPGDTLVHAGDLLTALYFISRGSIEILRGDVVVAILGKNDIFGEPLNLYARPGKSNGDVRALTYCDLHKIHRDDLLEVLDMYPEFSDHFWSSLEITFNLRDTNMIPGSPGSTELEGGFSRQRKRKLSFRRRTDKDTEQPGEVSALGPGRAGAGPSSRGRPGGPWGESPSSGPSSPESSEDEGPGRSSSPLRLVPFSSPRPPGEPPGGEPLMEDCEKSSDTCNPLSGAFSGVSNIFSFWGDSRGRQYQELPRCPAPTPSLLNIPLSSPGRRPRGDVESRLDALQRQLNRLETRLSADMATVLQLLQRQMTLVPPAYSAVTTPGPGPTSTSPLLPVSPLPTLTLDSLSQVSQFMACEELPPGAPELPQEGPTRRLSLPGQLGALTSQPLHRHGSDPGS

| Compound | hERG current change (%, negative = inhibition) at 1uM |
| --- | --- |
| CCC(C)(C)NC(=O)C(OC(=O)c1cc2sccc2n1C)c1ccc(OC)cc1 (stereo not drawn) | 3.91% |
| COc1ccc(Nc2nc3[nH]c(=O)cc(O)c3s2)cc1 | 8.1% |
| CC1Cc2ccccc2N1C(=O)C1CC(=O)N(c2ccccc2)C1 (stereo not drawn) | 10.1% |
| CC[N+](CC)(CC)CCC(O)(c1ccccc1)C1CCCCC1.[Cl-] (stereo not drawn) | 12.8% |
| CCCOc1nc(SCCC)nc2c1cnn2-c1ccccc1 | 4.47% |
| CCC(C)NC(=O)/C(=C/c1ccco1)c1ccccc1 (stereo not drawn) | 4.99% |
| COc1ccc(C)cc1S(=O)(=O)N(C)CC(=O)Nc1ccc2c(c1)OCO2 | 1.3% |
| COC(=O)COc1ccc(S(=O)(=O)NCCC2=CCCCC2)cc1Cl | 11.4% |
| COc1ccccc1NC(=O)CSc1nnc(C2CCCCC2)n1C | 14.7% |
| NC1=NC(=Nc2cccc(S(N)(=O)=O)c2)c2ccccc21 | 12.6% |
| OCC1(Cc2ccccc2)CCN(CCCC2CCCC2)CC1 | -79% |
| Cc1cc(NS(=O)(=O)c2ccc(NC(=O)CCN3C(=O)c4ccccc4C3=O)cc2)no1 | 9.94% |
| COC(=O)c1sc(S(=O)(=O)N2CCC(C(N)=O)CC2)c(C(=O)OC)c1C | -10.8% |
| O=C(CC(=O)c1ccccc1)Nc1ccc2c(c1)OCCO2 | -1.19% |
| O=C(Nc1ccc2c(c1)OCO2)C1CC(=O)N(CCc2ccccc2)C1 (stereo not drawn) | 4.44% |
| COc1ccc(NC(=O)COC(C)=O)cc1OC | 8.18% |
| CC(C)(C)C(=O)N1CCN(c2ccc(Cl)cc2[N+](=O)[O-])CC1 | -13.8% |
| Cc1cccc(OCC(=O)N(Cc2ccc(F)cc2)C2CCS(=O)(=O)C2)c1C (stereo not drawn) | -3.51% |
| COc1ccc(O)c(-c2nc(N)nc(N)n2)c1 | -0.656% |
| CC(=O)Nc1cccc(OCC(=O)/C=C2\N(C)c3ccccc3C2(C)C)c1 | 14.5% |
| CN1CCN(C(=O)c2ccc(Cl)c(S(=O)(=O)N3CCCCCC3)c2)CC1 | -3.36% |
| CCn1c(COc2ccccc2C)nnc1SCC(=O)N1CCN(c2ccccc2)CC1 | -11.3% |
| COc1ccc(-n2nc(C(=O)NCC(=O)N3CCOCC3)c3ccccc3c2=O)cc1Cl | 14.3% |

| Compound | hERG current change (%, negative = inhibition) at 1uM |
| --- | --- |
| C[N+]12CCCCC1C(COC(=O)c1ccc3c(c1)OCO3)CCC2.[I-] (stereo not drawn) | 15.4% |
| COc1ccc(/C=N/n2c(-c3ccco3)nc3ccccc3c2=O)cc1 | 12.4% |
| Cc1cc(NCc2ccc(F)cc2Cl)n2nnnc2n1 | 3.39% |
| COc1cc2cc(CN(Cc3cccnc3)C(=O)Nc3ccccc3)c(=O)[nH]c2cc1OC | 6.43% |
| O=C(O)C1CCCCN1S(=O)(=O)c1ccc2ccccc2c1 (stereo not drawn) | -0.446% |
| COCCNC(=O)CSc1nc2ccccc2c(=O)n1CC1CCCO1 (stereo not drawn) | -1.98% |
| O=C(Nc1ccc(Oc2ccccc2)nc1)C1CCN(Cc2cccc(F)c2)CC1 | 2.74% |
| Cc1ccc(P(=O)(OCCN2CCOCC2)C(C)(C)C)o1 (stereo not drawn) | -0.356% |
| CC1CCCN(C(=O)CCc2ccccc2)C1 (stereo not drawn) | 3.25% |
| N#Cc1cc2c(nc1SCC(=O)Nc1sc3c(c1C#N)CCC3)CCC2 | 9.46% |
| CC(C)C(=O)c1cc2c(cc1NC(=O)Nc1cccc3ccccc13)OCCO2 | 9.04% |
| NS(=O)(=O)c1ccc(NC(=S)Nc2nn(Cc3ccc(Cl)cc3Cl)cc2Cl)cc1 | 12.8% |
| COc1ccc(OCC(=O)Nc2c3c(nn2-c2ccc(OC)cc2)CS(=O)(=O)C3)cc1 | 1.4% |
| COC(=O)Cn1ccc(N(C)C)c(C#N)c1=O | 13.8% |
| C[C@@H]1CC=C[C@H]2[C@H]1C(=O)N(Cc1ccccc1)[C@H]2c1ccc(/C=C/c2ccccc2)cc1F | 11.8% |
| Cc1ccc(Cl)cc1NC(=O)Cn1c(C)csc1=O | 15.1% |
| CN1C2CCC1CC(N(CCc1ccccc1)C(=O)c1ccc(Cl)cc1)C2.Cl (stereo not drawn) | -78.8% |
| C=CCS(=O)(=O)N1CCCC(Cc2ccccc2C)(C(=O)OCC)C1 (stereo not drawn) | 6.26% |
| O=C(NC1CCSc2ccccc21)c1cccc(Cl)c1 (stereo not drawn) | 12.6% |
| CC(NC(=O)C1CCN(C(=O)Nc2ccccc2)CC1)c1ccc(Cl)cc1 (stereo not drawn) | -2.16% |
| O=c1[nH]c(SCc2ccccc2Cl)nc2c1CCC2 | 5.03% |
| CC1=C(C#N)C(/C=N/OCc2ccc(F)cc2Cl)CC(=O)N1 (stereo not drawn) | 3.06% |
| CN(C)c1ccc(C(=O)N2CC(=O)N(CCc3ccccc3)C(=O)C2)cc1 | 6.92% |

| Compound | hERG current change (%, negative = inhibition) at 1uM |
| --- | --- |
| COCCNC(=O)Cn1c(=O)n(C)c2ccccc21 | 15% |
| N/C(=N\OC(=O)c1cccc2ccccc12)c1ccc(Br)cc1 | -1.55% |
| CCc1ccc(OCC(=O)NNC(=O)Cc2ccc(S(=O)(=O)N3CCOCC3)s2)cc1 | -2.08% |
| Cc1ccc(NC(=O)C(NCc2ccccn2)c2ccccc2)cc1 (stereo not drawn) | 12.2% |
| Cc1ccc(C)c(NNC(N)=S)c1 | 2.99% |
| O=[N+]([O-])c1ccc2nc(C3CCCCC3)[nH]c2c1 | 6.81% |
| O=C(CCNC(=O)c1ccco1)NCc1ccccc1 | -3.84% |
| Br.CNc1nc2ccccc2n1CC(=O)c1ccccc1 | 13.6% |
| CCC(C)NC(=O)C1CCN(S(=O)(=O)c2cccc3nonc23)CC1 (stereo not drawn) | 13% |
| Nc1nc2sc3c(c2cc1C(=O)NCC(=O)O)CCCC3 | 17.1% |
| CCOC(=O)N1CCC(NS(=O)(=O)c2ccc(C)c(Cl)c2)CC1 | -3.71% |
| O=c1c2c(ncn2C2CCCC2)n(Cc2ccccc2)c(=O)n1CCOc1ccccc1 | 13% |
| O=C(N/N=C/c1ccccc1C(F)(F)F)c1ccc(O)cc1 | 4.73% |
| COc1ccc(-c2cc(C(F)F)n3ncc(C(=O)N4CCN(C)CC4)c3n2)cc1 | 7.31% |
| Cc1ccc(C2/C(=C(/O)c3ccc(OC(C)C)cc3)C(=O)C(=O)N2CCN2CCOCC2)cc1 (stereo not drawn) | 4.88% |
| Cc1cc(C)n(-c2nncc(-c3ccccc3)n2)n1 | 2.94% |
| Cc1c(C(=O)NCc2ccco2)oc2ccc(S(=O)(=O)N3CCC4(CC3)OCCO4)cc12 | 5.6% |
| CCN(CC)CCSc1nc(O)c(C(C)C)c(=O)[nH]1.Cl | 14.8% |
| CN(C)CCN=Cc1c(O)n(C2CCCCCC2)c(=O)[nH]c1=O | 14% |
| Cc1csc(CN(C)C(=O)CC2C(=O)NCCN2Cc2ccc(Cl)c(F)c2)n1 (stereo not drawn) | 7.86% |
| CCN1C(=O)[C@H]2[C@@H](c3ccc(OC)cc3)N3C(=O)CN(CC4CC4)C(=O)[C@@]3(C)[C@H]2C1=O | -9.52% |
| O=[N+]([O-])c1ccc(-c2cnc[nH]2)cc1 | 7.93% |
| CN(CC(=O)Nc1ccccc1Br)C(=O)c1ccccc1Cc1ccccc1 | 4.41% |

| Compound | hERG current change (%, negative = inhibition) at 1uM |
| --- | --- |
| COCCn1nnnc1CN1CCSCC1.Cl | 19.4% |
| Cc1ccc(C(C)C)cc1OCC(=O)Nc1ccc(N2CCCCC2)cc1 | 14.1% |
| CCOc1ccc(N(CC(=O)Nc2ccc(C)c(C)c2)S(=O)(=O)c2c(C)[nH]c(=O)[nH]c2=O)cc1 | 10.6% |
| CC(C)(C)OC(=O)NCCCCCc1nnc(SCc2ccc(F)cc2)o1 | 3.71% |
| Cc1nn(C)c(C)c1CN(C)S(=O)(=O)c1ccc(F)cc1 | 1.05% |
| O=C(CCc1c[nH]c2ccccc12)NC(Cc1c[nH]c2ccccc12)C(=O)O (stereo not drawn) | 12.7% |
| CN1OCC(S(=O)(=O)c2ccccc2)C1c1ccccc1 (stereo not drawn) | 8.4% |
| Cl.NS(=O)(=O)c1ccc(CCNCc2cccnc2)cc1 | 9.59% |
| CCc1nc(N[C@H](C(=O)O)C(C)C)c2oc3ccccc3c2n1 | 16% |
| O=C(c1cc(=O)[nH]c2ccccc12)N1CCN(c2ccccc2)CC1 | 7.22% |
| Cc1cc(Nc2nc3ccccc3nc2Cl)n(-c2ccccc2C)n1 | 2.54% |
| COc1cccc2sc(Nc3nnc(-c4ccc(F)cc4)o3)nc12 | 3.05% |
| O=C1NC(=O)C(=Cc2cc([N+](=O)[O-])ccc2N2CCCCC2)C(=O)N1 | 4.84% |
| COc1ccc(COC(=O)C2CCN(S(=O)(=O)c3ccc(OC)c(OC)c3)CC2)cc1 | 4.15% |
| CC(=O)N/N=C/c1cc2c(cc1[N+](=O)[O-])OCO2 | 8.06% |
| O=C(/C=C/c1ccc([N+](=O)[O-])cc1)N(c1ccccn1)C1CCCCC1 | 4.69% |
| Cn1c(SCC(=O)Nc2ccccc2Cl)nnc1C1CC1 | 9.25% |
| Cc1cc(C)c(C)c(S(=O)(=O)N2CCN(C(=O)c3ccncc3)CC2)c1C | 6.39% |
| CCCC(=O)Nc1nc(-c2ccc(Cl)s2)cs1 | 24.6% |
| CCn1ncc([N+](=O)[O-])c1C(=O)NC1CCCCC1 | 13.3% |
| CCOC(=O)CCc1c(C)nc2c(c(C)nn2C(C)(C)C)c1C | 7.54% |
